These results are taken from ChEMBL document CHEMBL4888484, “Replenishing the malaria drug discovery pipeline: Screening and hit evaluation of the MMV Hit Generation Library 1 (HGL1) against asexual blood stage Plasmodium falciparum ,using a nano luciferase reporter read-out” (2022).

Hit rate of the full screen: of about 150,000 compounds, about 540 (0.36%) showed an effect of 50% or more. The list shows a part of the results.

In the assay the test system is Plasmodium falciparum. Briefly: Primary screen in NF54 nanoGlo assay, in single point, at 2uM, 72h; a lower Z score goes with more inhibition. The following applies: timepoint 72 hour. In kind it is functional, Erythrocyte.
As for `COc1cccc(-c2ccnc3c(C(=O)NCc4ccc(F)cc4)cnn23)c1`, the “% Inhibition” value is -13% and the Z score is reported as 2.35.
Consider `CCC[N+]1(CC#C[C@@](O)(c2ccccc2)C2(C)CCCC2)CCCCC1`, for which the “% Inhibition” value is recorded as 51% and the Z score is -4.55.
For `CCC(C)[C@H](NC(=O)C1CCCN(S(=O)(=O)c2ccc(OC)cc2)C1)C(=O)NCc1ccco1` (stereo partly specified), the “% Inhibition” value came out at 2% and the Z score is listed as -0.43.
For the compound `CCOC(=O)c1ncn([C@@H]2O[C@H](CO)[C@H]3OC(C)(C)O[C@H]32)c1N`, the “% Inhibition” value is on record as -9% and the Z score is on record as 1.15.
Regarding `Cc1nc(N2C[C@@H](CN(C)C)[C@@H](CO)C2)nc2c1CCCC2`, the “% Inhibition” value is 2% and the Z score is -0.42.
On to `Cc1nn(CCNS(C)(=O)=O)c(C)c1-c1ccco1`, for which the “% Inhibition” value worked out at 22% and the Z score is reported as -2.83.
With `Cc1noc(C)c1S(=O)(=O)N1CC=C(c2c(C)[nH]c3ccccc23)CC1`, the “% Inhibition” value is given as 4% and the Z score is -0.51.
Consider `Cc1cc(C(=O)N2CC[C@](O)(c3ccccc3)[C@H](N(C)C)C2)[nH]n1`, for which the “% Inhibition” value amounted to 4% and the Z score is recorded as -0.54.
As to `CC(C)c1ccc(Oc2cnn(-c3cccc(Cl)c3)c(=O)c2Nc2cccc(C(=O)NC3CC3)c2)cc1`, the “% Inhibition” value is given as 26% and the Z score is reported as -7.11.
In the same order, the values of `C(#Cc1ccccn1)CN1CCCCC1` are -7% and 1.18.
With `CS(=O)(=O)N1CCC[C@H]1C1CCC1`, the “% Inhibition” value is listed as -6% and the Z score worked out at 0.59.
In the same order, the values of `CCOC(=O)[C@@H](NC(=O)c1cnnn1CC)C1CCCCCC1` are -4% and 0.79.
In the same order, the values of `COC[C@@H]1CN(Cc2ccc(Cl)cc2F)C[C@H]1C(=O)NC1CC1` are 1% and -0.12.
Take `O=C1CN(C(=O)Nc2ccncc2)C2(CCCCC2)C(=O)N1`: the “% Inhibition” value was -6% and the Z score was 1.05.
As to `CC(C)(C)[C@H](Cn1ccnc1)n1cnc2ncccc2c1=O`, the “% Inhibition” value is -11% and the Z score was found to be 2.12.
With `N#Cc1ccccc1C(=O)NCc1cc2n(n1)CCCN(C1CCCCC1)C2`, the “% Inhibition” value is given as -12% and the Z score came to 1.21.
The corresponding values for `O=C(c1cccc2[nH]ncc12)N1CCCC1` are 1% and -0.17.
As to `C[C@@H](c1nccs1)N(C)c1nc2nonc2nc1NC1CC1`, the “% Inhibition” value is -15% and the Z score is 2.31.
For the compound `Cc1nc(C)c(C)c(N2CCC[C@]3(CCC(=O)N(C4CCCC4)C3)C2)n1`, the “% Inhibition” value is -11% and the Z score is 1.34.
Take `Cc1csc(N(C(=O)c2[nH]nc3c2CCCC3)C2CC2)n1`: the “% Inhibition” value came out at 6% and the Z score is recorded as -0.72.
On to `Cc1ccc2c(c1)[C@]1(C(=O)N2)[C@@H]2C(=O)N(c3ccc4ccccc4c3)C(=O)[C@@H]2[C@@H]2CCCN21`, for which the “% Inhibition” value is listed as -13% and the Z score is 1.71.
With `COCC(=O)N1CCc2cc(NC(=O)c3n[nH]c4ccccc34)ccc21`, the “% Inhibition” value is -1% and the Z score was 0.18.
With `Cc1noc(C)c1C(=O)N1CCCCC[C@H]1c1nn(C)cc1Cl`, the “% Inhibition” value is -10% and the Z score was 0.91.
For the compound `CCN(CCO)C(=O)c1cc(Cl)c(OCCC(C)C)c(OC)c1`, the “% Inhibition” value was 7% and the Z score is reported as -0.94.
As for `O=C(NCCN1CCC(CO)CC1)N1CC(Oc2ccccc2F)C1`, the “% Inhibition” value is -17% and the Z score stood at 1.55.
The corresponding values for `C#CCNC(=O)c1ccc(N[C@@H](C)COC)nc1` are -9% and 1.46.
With `O=C(NCC1CCCCC1)Nc1ccccc1N1CCCC1=O`, the “% Inhibition” value was 0% and the Z score was determined as 0.02.
In the case of `O=C(Oc1ccc(N2CCCC2=O)cc1)c1ccc(F)c(F)c1`, the “% Inhibition” value is listed as -3% and the Z score amounted to 0.5.
As to `CCOc1ccc(S(=O)(=O)N2CCC(n3cnc4cccnc43)CC2)cc1`, the “% Inhibition” value was determined as 2% and the Z score is reported as -0.31.
In the case of `COCCN(Cc1c(-c2ccccc2)noc1N(C)C1CCCCC1)C(=O)CC(C)C`, the “% Inhibition” value is listed as -6% and the Z score is 0.81.
For `O=C(Nc1ncccn1)C1CCN(Cc2nnsc2Cl)CC1`, the “% Inhibition” value is -10% and the Z score stood at 1.26.
In the case of `CN(CC1CCOCC1)S(=O)(=O)Cc1ccccc1`, the “% Inhibition” value is recorded as -8% and the Z score was found to be 1.2.
In the case of `CN(C(=O)CS(=O)(=O)Cc1ccn(C)c(=O)c1)C1CCCCC1`, the “% Inhibition” value is recorded as 2% and the Z score was -0.49.
`O=C(C[C@H]1COc2ccccc2O1)N1CCC(COc2cc3c(nn2)CCCC3)CC1`: the “% Inhibition” value is listed as -15% and the Z score came out at 1.71.
The corresponding values for `COCCc1nc(-c2cnc(C3CC3)nc2)n(CCO)n1` are -7% and 1.33.
On to `CN(CC(=O)Nc1cc(S(C)(=O)=O)ccc1Cl)Cc1ccco1`, for which the “% Inhibition” value was determined as 2% and the Z score is reported as -0.3.
In the same order, the values of `Cc1nc(C)c(Cc2cccc(F)c2)c(N2CCCN(C(=O)c3cc(C(F)(F)F)cc(C(F)(F)F)c3)CC2)n1` are -5% and 0.59.
As for `C[C@@H](CCc1ccccc1)NC(=O)c1ccc(-n2nc(OCc3ccc(Cl)cc3)ccc2=O)cc1`, the “% Inhibition” value is -6% and the Z score was determined as 1.02.
For the compound `CCN(CC(=O)Nc1ccc(OC)cc1)C(=O)Cc1ccc(OC)c(S(=O)(=O)N2CCOCC2)c1`, the “% Inhibition” value was -2% and the Z score worked out at 0.47.
For the compound `Brc1cc2c(cc1CN1CCOC3CCCCC31)OCCCO2` (stereo unspecified), the “% Inhibition” value is given as -11% and the Z score was 1.65.
With `COc1ccc(NC(=O)c2ccc(S(=O)(=O)N3CCc4ccccc43)cc2)c2ccccc12`, the “% Inhibition” value is on record as -7% and the Z score turned out to be 1.16.
The corresponding values for `COc1cnc(NC(=O)N2CC=C(c3cc(C)cc(C)c3)CC2)s1` are -1% and 0.15.
With `Cc1cc2nnn([C@@H](C)CO)c2cc1C`, the “% Inhibition” value is listed as -1% and the Z score turned out to be 0.09.
For the compound `COC(=O)c1ccc(-c2nc(CN(CC3CC3)C[C@H]3CCCO3)c(C)o2)cc1`, the “% Inhibition” value is recorded as -10% and the Z score was 1.24.
In the same order, the values of `O=C(N[C@@H]1COCC[C@@H]1OCc1cscn1)c1ccc2scnc2c1` are -7% and 1.17.
With `CC(C)c1nccn1C[C@H]1CCc2ccccc2O1`, the “% Inhibition” value is -4% and the Z score was 0.74.
In the case of `N#CCCN(CCO)Cc1ccccn1`, the “% Inhibition” value worked out at 6% and the Z score is reported as -0.59.
The corresponding values for `O=C(NCc1ccccc1CN1CCCC1CO)C1CC1c1ccc(Cl)cc1Cl` (stereo unspecified) are -2% and 0.24.
As for `CC(C)CS(=O)(=O)C1CN(C(=O)CCc2ccc(F)c(Cl)c2)C1`, the “% Inhibition” value is given as -12% and the Z score is listed as 1.58.
The corresponding values for `CCCc1nnsc1C(=O)NCCc1nc2c(c(C(F)(F)F)n1)CCCC2` are -9% and 0.98.
Take `CCOC(=O)NCCC(=O)NC(C)C1CCCO1` (stereo unspecified): the “% Inhibition” value is on record as 0% and the Z score was 0.05.
The corresponding values for `Cc1cccc(Nc2ncncc2-c2nc(-c3ccccc3)no2)c1C` are -5% and 0.73.
`CC(=O)N(CCCN1CCOCC1)[C@H]1CCCN(C(=O)c2cc(C)n(C)n2)C1`: the “% Inhibition” value stood at 5% and the Z score is listed as -0.62.

Usually % Inhibition stands for the relative decrease from the control value, in per cent.
